Source: PubChem BioAssay AID485344 (National Center for Advancing Translational Sciences (NCATS), 2010)
The whole screen tested about 340,000 compounds, of which about 6,900 (2%) were called active. No stated cut-off is given here; in the data, active means inhibition above about 30%; inactive means below that, where a call was filed. The list shows a part of the results, in another mix than the full data. The source gives no active or inactive call for entries shown without one.
Further: 0% is about no effect.

These compounds were tested against D(2) dopamine receptor (Homo sapiens) (UniProt P14416) (assay: HTS Assay for Allosteric Antagonists of the Human D2 Dopamine Receptor: Primary Screen for Antagonists). Conditions: HEK293 TREx D2 cells, calcium flux, dopamine EC80; at 10 µM; stronger effect = higher value.
Chain of UniProt P14416 (P14416 whole entry, looked up): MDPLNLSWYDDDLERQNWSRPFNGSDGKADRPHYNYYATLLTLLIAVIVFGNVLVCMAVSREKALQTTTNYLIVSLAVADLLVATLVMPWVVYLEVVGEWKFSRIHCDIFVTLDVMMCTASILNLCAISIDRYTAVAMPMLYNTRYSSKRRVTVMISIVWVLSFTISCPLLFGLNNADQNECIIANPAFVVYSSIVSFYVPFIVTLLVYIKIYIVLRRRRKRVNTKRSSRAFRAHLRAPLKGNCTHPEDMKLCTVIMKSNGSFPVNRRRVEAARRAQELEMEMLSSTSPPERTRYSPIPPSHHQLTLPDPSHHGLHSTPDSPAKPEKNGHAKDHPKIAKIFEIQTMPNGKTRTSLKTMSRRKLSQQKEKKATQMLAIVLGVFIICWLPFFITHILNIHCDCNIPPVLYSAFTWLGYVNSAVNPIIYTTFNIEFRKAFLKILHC
Summary of the method: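 Cells plated overnight at 30 C with tetracycline; no-wash calcium dye, 30–90 min RT; 10 s baseline; compound pinned; 180 s read; EC80 dopamine added; another 180 s read.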
Compound `CC(C)NC(=O)C1CCCN(S(=O)(=O)c2ccc3c(ccn3C)c2)C1` (stereo unspecified) has an inhibition of 17.9%. With `CCc1cccc(C)c1NC(=O)c1cc(CN2CCCC2)on1` the inhibition was -8.75%. `COCCn1c(C)cc(O)c(C(c2cccc(F)c2)N2CCN(c3ccccc3)CC2)c1=O` (stereo unspecified) showed an inhibition of -11.1%. Work on `COc1ccc(N(CC(=O)N2CCN(c3cccc(Cl)c3)CC2)S(=O)(=O)c2c(C)noc2C)cc1` yielded an inhibition of 3.33%. With `CCOc1ccc(C(=O)N2CC(=O)Nc3ccc(F)cc3C2c2ccc(F)cc2)cc1` (stereo unspecified) the inhibition was -0.836%. Compound `Cc1cccc(OCC(=O)Nc2ccc3nc(SCc4ccccc4)sc3c2)c1` has an inhibition of 10.9%. Compound `CCc1ccc(CNC(=O)c2ccc(Cn3c(=O)c4cccn4c4cccnc43)cc2)cc1` has an inhibition of 7.02%. Compound `CCCc1nnc(NC(=O)CSc2nnc3c4ccccc4n(CC)c3n2)s1` has an inhibition of 2.19%. Work on `Cc1cc(Cl)ccc1NC(=O)C1CCCN(c2nnc(C)c3c(C)n(-c4ccccc4)nc23)C1` (stereo unspecified) yielded an inhibition of -0.349%. `COc1cccc(CNC(=O)CCc2c(C)nn(-c3ccc(N4CCCC4)nn3)c2C)c1` gave an inhibition of 0.129%. With `Cc1cc(C)c(NC(=O)C(C)n2nc(C)c3sc4ccccc4c3c2=O)c(C)c1` (stereo unspecified) the inhibition was -26.4%. Compound `COc1cccc(N2CC(NC(=O)c3cccs3)CC2=O)c1` (stereo unspecified) has an inhibition of -25.2%. In the case of `CC(CCc1ccccc1)NC(=O)CSc1n[nH]c(-c2ccccc2Cl)n1` (stereo unspecified), the inhibition is reported as 3.85%. `COc1ccc(OC(=O)c2cn(-c3cccc(OC)c3)c(=O)c3ccccc23)cc1` gave an inhibition of -17.3%. `Cc1cc(F)ccc1NC(=O)C1CCCN(C(=O)c2cnn(-c3ccccc3)c2-n2cccc2)C1` (stereo unspecified) gave an inhibition of -0.508%. For `Cc1ccc(OC(C)C(=O)N2CCN(CCc3ccccn3)CC2)cc1C` (stereo unspecified), the inhibition was 19.7%. `O=S(=O)(NCC(c1ccco1)S(=O)(=O)c1cccs1)c1ccccc1` (stereo unspecified) was tested, and the inhibition was 12.1%. `Cc1ccccc1NC(=O)CSc1nccn1C` gave an inhibition of 10.3%. `Cc1nnc(N2CCC(C(=O)NC3CCC(C)CC3)CC2)c2nn(-c3ccc(Cl)cc3)c(C)c12` (stereo unspecified) showed an inhibition of 4.42%. `Cc1cccc(N(C)C(=O)Cn2cnc3nc4c(cc3c2=O)CCCC4)c1` gave an inhibition of -5.64%. `CCN1C(=O)C(Cc2nc3ccccc3c(=O)n2-c2cccc(C)c2)c2ccccc21` (stereo unspecified) was tested, and the inhibition was 2.62%. `CC(C)Oc1ccc(C(=O)NCCc2csc(-c3cccc(F)c3)n2)cc1` showed an inhibition of -1.53%. With `Cc1ccc(-c2noc(-c3ccccc3OCC(=O)Nc3ccccc3[N+](=O)[O-])n2)cc1` the inhibition was -4.1%. In the case of `Cc1ccccc1NC(=O)c1c(C)oc2ccc(O)c(CN(C)Cc3ccccc3)c12`, the inhibition is reported as -6.26%. In the case of `O=C(Nc1ncc(Cc2ccc(F)cc2)s1)c1ccc2c(c1)CC(c1ccccc1)OC2=O` (stereo unspecified), the inhibition is reported as 4.72%. `Cn1c(CN2CCCCC2)c(C#N)c2ccccc21` was tested, and the inhibition was active: 45.6%. `CCCC(=O)N1c2nc(-c3ccco3)nn2C2(CCCCC2)[C@@H]2CCCC[C@@H]21` gave an inhibition of -5.49%. With `COc1cccc(NC(=O)Cn2c(=O)n(-c3ccc(C)cc3)c(=O)c3ccccc32)c1` the inhibition was 16.7%. `Cc1ccc(-c2nn(CCC(=O)Nc3ccc(OC(F)(F)F)cc3)c(=O)c3ccccc23)cc1` gave an inhibition of 3.28%. For `Cc1ccc(NC(=O)C2CCN(C(=O)c3sc4nc[nH]c(=O)c4c3C)CC2)cc1F`, the inhibition was -9.84%. In the case of `COc1ccccc1C(=O)Nc1ccccc1OCc1cc(=O)n2cc(C)sc2n1`, the inhibition is reported as 0.227%. Work on `CCOc1cccc(C(=O)N(Cc2ccc(C(C)C)cc2)C2CCS(=O)(=O)C2)c1` (stereo unspecified) yielded an inhibition of 0.587%. In the case of `CCc1ccc(N2CC(C(=O)Nc3nc4ccc(S(C)(=O)=O)cc4s3)CC2=O)cc1` (stereo unspecified), the inhibition is reported as active: 36.6%. `CCCSc1nnc(NC(=O)c2cc(=O)c3ccccc3o2)s1` gave an inhibition of 9.02%. Compound `CCOC(=O)N1CCc2c(sc3c2c(=O)n(CCc2ccccc2)c(=O)n3CC(=O)Nc2ccccc2C)C1` has an inhibition of -6.96%. `COc1ccc(NC(=O)C2CCCN(S(=O)(=O)c3ccc4[nH]c(=O)ccc4c3)C2)cc1Cl` (stereo unspecified) gave an inhibition of -13.6%. `COC(=O)c1cc2sccc2n1Cc1c(C)cc(C)cc1C` gave an inhibition of -4.9%. In the case of `CCCN1CCN(CCCNC(=O)c2cc3c(s2)-c2c(C)cccc2OC3)CC1`, the inhibition is reported as 9.27%. For `O=C(c1cccc(Cl)c1)N(Cc1cccc(F)c1)C1CCS(=O)(=O)C1` (stereo unspecified), the inhibition was 17.9%. In the case of `CCC(C(=O)NCc1ccccc1Cl)n1c(=O)c2cccn2c2ccccc21` (stereo unspecified), the inhibition is reported as -8.97%. `Cc1ccc2c(c1)N(C(=O)c1ccc(F)cc1)C(C)(C)CC2(C)c1ccccc1` (stereo unspecified) showed an inhibition of 3.85%. For `CCN(CC)CCN(C(=O)c1ccc2c(c1)CCCC2)c1nc2c(C)cccc2s1`, the inhibition was active: 60.1%. `COC(=O)c1cc(OC)c(OC)cc1NC(=O)c1ccc2c(c1)CCN2S(C)(=O)=O` showed an inhibition of 9.14%. `O=C(NCc1ccccc1)c1c2c(nc3ccccc13)C(=O)N(C1CCCCC1)C2` showed an inhibition of 1.05%. `COc1ccc(-c2ccc(=O)n(CC(=O)Nc3ccc(Br)cc3F)n2)cc1` showed an inhibition of -5.75%. Work on `CCS(=O)(=O)c1nc(S(=O)(=O)c2ccc(Cl)cc2)c(NCc2ccc(Cl)cc2)s1` yielded an inhibition of -1.88%. For `CCOC(=O)c1[nH]c(C)c(CCC(=O)N2CCN(c3ccc(Cl)cc3)CC2)c1C`, the inhibition was -17.8%. Work on `O=C(O)c1ccc(Nc2ncnc3scc(-c4ccccc4)c23)cc1` yielded an inhibition of 7.48%. For `Cn1c(=O)c2c(-c3ccccc3)n(-c3cccc(C#N)c3)cc2n(C)c1=O`, the inhibition was -7.51%. With `CCOC(=O)c1sc(NC(NC(=O)c2ccco2)(C(=O)OC)C(F)(F)F)nc1C` (stereo unspecified) the inhibition was active: 33.8%. Compound `CCc1ccc2nc(N(Cc3cccnc3)C(=O)Cc3ccccc3)sc2c1` has an inhibition of -7.72%. For `O=C(C#Cc1ccccc1)Nc1ccc(F)cc1`, the inhibition was active: 46.7%. Compound `COc1ccc(Cc2c(C)nn(-c3nc(C)c(C(=O)Nc4cccc(C(C)=O)c4)s3)c2C)cc1` has an inhibition of -8.07%. For `CC(C)c1nn2c(=O)cc(COC(=O)c3cccc(NC(=O)CCc4ccccc4)c3)nc2s1`, the inhibition was -3.6%. In the case of `O=C(CSc1oc(-c2ccc(F)cc2)nc1S(=O)(=O)c1ccccc1)c1ccc(Cl)cc1`, the inhibition is reported as -4.76%. In the case of `CCN(Cc1ccccc1)C(=O)Cn1c(=O)cc(C)c2c(C)nn(-c3cccc(F)c3)c21`, the inhibition is reported as 7.75%. Work on `CCOc1ccc(-c2nnc(SCC(=O)NC3CCCCC3)nc2-c2ccc(OCC)c(OC)c2)cc1OC` yielded an inhibition of 26%. In the case of `COc1ccc(CNC(=O)CCn2c(=O)c3cccn3c3ccc(F)cc32)cc1OC`, the inhibition is reported as 17.2%. `CC(C)c1ccc(NC(=O)C2CCC(CNS(=O)(=O)c3ccc4c(c3)CCCC(=O)N4)CC2)cc1` (stereo unspecified) gave an inhibition of -0.805%. With `CCc1ccc2occ(CC(=O)Nc3nnc(SC)s3)c2c1` the inhibition was -8.59%. `CC(C)c1ccc(NC(=O)[C@H]2O[C@@H]3OC(C)(C)O[C@@H]3[C@H]3OC(C)(C)O[C@H]32)cc1` was tested, and the inhibition was 6.2%. With `Cc1c(Cc2ccccc2)c(=O)oc2c(O)c(O)ccc12` the inhibition was active: 33.8%. `Cc1nn(CC(=O)N2CCN(c3ccccc3F)CC2)c(=O)c2cccn12` gave an inhibition of -4.33%. `CCN(CC)c1ccc2nc3c(=O)n(C)c(=O)n(C)c3nc2c1` showed an inhibition of 23.2%. In the case of `COc1ccc(-n2ccnc(NCCc3ccc(S(N)(=O)=O)cc3)c2=O)cc1Cl`, the inhibition is reported as -3.11%. Work on `CC(C)c1ccc(NC(=O)c2cc(S(=O)(=O)NCCc3ccccc3)ccc2F)cc1` yielded an inhibition of -10.6%. Compound `Cc1cccn2c(=O)cc(COc3cccc(NC(=O)Nc4cccc(Cl)c4)c3)nc12` has an inhibition of -16.1%. `O=C1Cc2cc(S(=O)(=O)Nc3cccc(C(F)(F)F)c3)cc3c2N1CCC3` was tested, and the inhibition was 7.34%. For `Cc1sc(NC(=O)c2cccs2)c(C(=O)OC(C)C)c1C`, the inhibition was active: 31.3%. `COc1ccc(C(C)C)cc1S(=O)(=O)NCCc1c(C)[nH]c2c(Cl)cccc12` was tested, and the inhibition was 9.75%. `C[C@H](NC(=O)OC(C)(C)C)c1nnc(SCc2ccc(Cl)cc2Cl)o1` showed an inhibition of -7.97%. For `CCOC(=O)C(Cc1ccccc1)NC(=O)Cn1nnc(-c2ccc(C)cc2)n1` (stereo unspecified), the inhibition was 8.13%. In the case of `CN(C)S(=O)(=O)N(CC(=O)NCCSCc1ccc(Cl)cc1Cl)c1ccccc1`, the inhibition is reported as 5.98%. `CSc1ccc(CCNC(=O)C2CCCN(S(=O)(=O)N(C)c3ccc(F)cc3)C2)cc1` (stereo unspecified) showed an inhibition of -5.31%. With `COc1ccccc1NC(=O)Cn1c(=O)n(C)c(=O)c2sc3c(c21)COC(C)(C)C3` the inhibition was active: 31.9%. Compound `COc1ccc(NC(=O)CN2C(=O)C(c3ccccc3)=NC23CCC(C)CC3)cc1Cl` (stereo unspecified) has an inhibition of 2.38%. With `COc1ccccc1-c1c(C)[nH]n2c(=O)c(Cc3ccccc3)c(C)nc12` the inhibition was active: 53.7%. Work on `CCOCCCNC(=O)CN1C(=O)CCn2nc(-c3cccn3C)cc21` yielded an inhibition of 14.1%. `COc1cc2[nH]c(=O)n(CCCC(=O)N(C)Cc3ccccc3)c(=O)c2cc1OC` showed an inhibition of -4.72%. Compound `CCc1ccccc1NC(=O)Cn1nc(C)c2nn(-c3ccc(Cl)cc3)c(C)c2c1=O` has an inhibition of -21.1%. `Oc1ccc(C2CNCc3sccc32)cc1O` (stereo unspecified) was tested, and the inhibition was active: 95.8%. `CCOC(=O)c1ccc(N2C(=O)c3n[nH]c(C)c3C2c2ccc(CC)cc2)cc1` (stereo unspecified) showed an inhibition of 5.35%. `COC(=O)c1cc2occc2n1Cc1nc(-c2ccc(Cl)cc2)oc1C` showed an inhibition of 1.56%. For `Cc1ccc(NC(=O)Cn2cc(S(=O)(=O)Cc3ccccc3)c3ccccc32)cc1C`, the inhibition was 5.04%. With `CCc1ccc(S(=O)(=O)c2cn(C)c3ccc(C)cc3c2=O)cc1` the inhibition was -7.1%. `CCCCN(CC)CCCNC(=O)c1sc2nc3n(c(=O)c2c1C)CCCCC3` showed an inhibition of -5.52%. For `Cc1ccc(CCNC(=O)CCCn2c(=O)c3cccn3c3ccc(F)cc32)cc1`, the inhibition was 8.49%. `O=C(CN1C(=O)COc2ccc(Cl)cc21)Nc1cccc(C(=O)O)c1` was tested, and the inhibition was -10.6%. For `CCn1c2ccccc2c2cc(CNCc3ccc(OC)cc3OC)ccc21`, the inhibition was active: 35%. For `COCCNC(=O)c1cc(-c2cccc(Cl)c2)on1`, the inhibition was -7.57%. In the case of `CC1CCc2nc3ncn(Cc4cccc(F)c4)c(=O)c3cc2C1` (stereo unspecified), the inhibition is reported as 10.9%. In the case of `COc1cccc(C(=O)NNC(=S)NC2CCCCC2)c1`, the inhibition is reported as active: 30.7%. In the case of `Cc1ccc(NC(=O)Cn2c(=O)n(CC(=O)NCCc3ccccc3)c(=O)c3ccccc32)cc1`, the inhibition is reported as 4.46%. In the case of `CCc1ccccc1NC(=O)Cn1nnc(C(=O)NCc2cccc(OC)c2)c1N`, the inhibition is reported as 3.37%. For `COc1ccc(CNC(=O)CCc2c(C)nc3c4cccnc4nn3c2C)cc1`, the inhibition was 10.3%. Work on `COc1ccc(C)cc1-n1c(SCC(=O)NCc2ccco2)nc2c([nH]c3ccccc32)c1=O` yielded an inhibition of -0.26%.
